The values below come from PubChem BioAssay AID1963576 (National Center for Advancing Translational Sciences (NCATS), 2024).

The whole screen tested about 46,000 compounds, of which about 60 (0.1%) were called active. About 3% were inconclusive and are not listed. Calls come from the whole dose curve; as a rule, active = well fitted inhibition curve with a large enough effect; inconclusive = small, poorly fitted or top-dose-only effect; inactive = no such curve, though single readings can be large or run the other way. The list shows a part of the results.

The test in a line: Primary qHTS assay for Inhibitors of ovarian cancer metastasis using an organotypic tumor microenvironment (TME) model.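 For activity change, negative = inhibition: plate controls were DMSO wells for no effect and tomatine positive control wells for full effect.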 Note: nearly all actives have a fitted effect of over 65% in size. Particulars: SKOV3ip1-GFP adhesion/invasion on 3D omental model, fluorescence; series mostly up to 45.8 µM; activity change, negative = inhibition: at the top concentration. The procedure, abridged: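 qHTS, 4-pt dose (0.36-46 umol/L); SKOV3ip1-GFP, 1,200 cells/well, no FBS; primary omental fibroblast/mesothelial co-culture 48 h pre-grown; 2 h RT + 16 h 37 C; PBS wash, 4% PFA; GFP count 488/509 nm.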
(In qHTS, concentration-response curves come from the screen itself.)
With `COc1cccc(-c2nc(CS(=O)(=O)CC(=O)NCCCN3CCN(C)CC3)c(C)o2)c1`, the “activity change, negative = inhibition” value was inactive: -0.88%. Still for that read-out and setting: in the case of `CCCCCn1c(=O)[nH]c2cc(C(=O)Nc3ccc(OC)c(OC)c3)ccc2c1=O` it was inactive: 6.15%. On to `COc1cccc(N2CCN(C(=O)Cn3cnc4onc(-c5ccc(F)cc5)c4c3=O)CC2)c1`, for which the molecule was classed as inactive. Take `CCc1nn(CC(=O)N2CCN(c3cccc(C(F)(F)F)c3)CC2)c(=O)c2cc3occc3n12`: the call was inactive. With `COc1cccc2cc(-c3nnc(-c4ccc(Cl)cc4)o3)c(=O)oc12`, the molecule was classed as inactive.

Turning to `CC(=O)Nc1ccc(S(=O)(=O)N2CCN(c3ccccc3)CC2)cc1`, the molecule was classed as inactive. Consider `COc1ccc(C)cc1NC(=O)C1CCCN(S(=O)(=O)c2ccc3c(c2)oc(=O)n3C)C1` (stereo not given), for which the “activity change, negative = inhibition” value is inactive: 50.8%. Regarding `Cn1c(=O)c(=O)n(C)c2cc(N3CCCC3)c(NC(=O)c3ccc(C(C)(C)C)cc3)cc21`, the “activity change, negative = inhibition” value was inactive: 2.8%. For the molecule `COc1cccc(CNC(=O)CN(c2ccc(C(C)C)cc2)S(=O)(=O)c2c(C)n[nH]c2C)c1`, the molecule was called inactive. In the case of `COc1cccc(-c2nnc3n(CCc4ccccc4)c(=O)c4ccccc4n23)c1O`, the “activity change, negative = inhibition” value is inactive: 2.32%.

For the molecule `CCOC(=O)CC(=O)CSc1nc2ccccc2c(=O)n1CCc1ccccc1`, the “activity change, negative = inhibition” value was inactive: -2.14%. With `O=C(O)C1=CC(O)C(O)[C@H](O)C1` (stereo not given in full), the “activity change, negative = inhibition” value is inactive: -14.5%. As to `Cc1ccc(SCc2nc(-c3ccc(C(=O)NCc4ccccc4Cl)cc3)oc2C)cc1`, the “activity change, negative = inhibition” value is inactive: 10.4%. On to `CC(=O)Nc1cccc(NC(=O)C2(c3cccs3)CCOCC2)c1`, for which the “activity change, negative = inhibition” value was inactive: 0.94%.

On to `O=C(CCC1N=C2c3ccccc3N=C(SCC(=O)Nc3ccccc3F)N2C1=O)NCc1cccs1` (stereo not given), for which the “activity change, negative = inhibition” value was inactive: 0.735%. Still for that read-out and setting: then `CCOC(=O)C1=C(c2ccccc2)Nc2ncnn2C1c1ccc(Cl)cc1` (stereo not given), with inactive: -5.33%; and `COc1cc(OC)cc(C(=O)Nc2ccc3oc(-c4ccc(Cl)cc4)nc3c2)c1`, with inactive: 9.52%; and `CCSc1nnc2c(n1)OC(c1ccc(OCC(=O)O)cc1)Nc1ccccc1-2` (stereo not given), with inactive: -11.7%.

Regarding `CCn1cc(C(=O)NCCOC)c(=O)c2cc(S(=O)(=O)N3CCOCC3)ccc21`, the “activity change, negative = inhibition” value is inactive: -5.14%. Regarding `CCc1ccc(NC(=O)C2CCN(S(=O)(=O)c3c(C)noc3/C=C/c3cccs3)CC2)cc1`, the “activity change, negative = inhibition” value is inactive: -3.68%. Regarding `Cc1cccc(NC(=O)CSc2cn(CC(=O)N3CCOCC3)c3ccccc23)c1`, the “activity change, negative = inhibition” value was inactive: -29.1%. Regarding `COc1ccc(S(=O)(=O)N(CCc2ccccc2)CC(=O)Nc2cc(C)ccc2C)cc1`, the “activity change, negative = inhibition” value is inactive: 4.08%.

Regarding `CCOC(=O)c1cccc(NS(=O)(=O)c2c(C)nc3sc(C)cn3c2=O)c1`, the “activity change, negative = inhibition” value was inactive: 4.67%. With `Cc1nc2ccc(S(=O)(=O)N(CC(=O)Nc3ccc(Cl)cc3)Cc3ccccc3)cc2s1`, the “activity change, negative = inhibition” value is inactive: 5.64%. In the case of `CCc1cccc(CC)c1NC(=O)c1c(C)oc2ccc(O)c(CN3CCOCC3)c12`, the outcome was inactive. For the molecule `COc1ccc(CNC(=O)c2ccc3c(c2)NC(=O)C(CS(=O)(=O)Cc2ccccc2Cl)N3)cc1` (stereo not given), the “activity change, negative = inhibition” value was inactive: 0.119%.

Take `O=C(c1ccc2c(c1)N(Cc1cccc(Cl)c1)C(=O)c1ccccc1S2(=O)=O)N1CCC(Cc2ccccc2)CC1`: the “activity change, negative = inhibition” value was inactive: -2.15%. Take `CCOc1ccccc1CNC(=O)CN1C(=O)CCn2nc(-c3cn(C)c4ccccc34)cc21`: the “activity change, negative = inhibition” value is inactive: -2.3%.

For the molecule `Cc1cc(=O)n2c(C(=O)Nc3ccc(F)c(Cl)c3)c(C(=O)Nc3cccc(C)c3C)sc2n1`, the molecule was classed as inactive. Regarding `Cc1ccc(NC(=O)C(Cc2ccccc2)n2cccc2)c(C)c1` (stereo not given), the “activity change, negative = inhibition” value was inactive: -9.11%. Regarding `CCOc1ccc(C(=O)c2oc3ccccc3c2NC(=O)c2cc(-c3ccccc3)on2)cc1`, the “activity change, negative = inhibition” value was inactive: 3.18%.

For `COc1ccc2c(CNCc3cccs3)c(C(=O)O)n(Cc3ccc(F)cc3Cl)c2c1`, the “activity change, negative = inhibition” value is inactive: -10.6%. Consider `COc1ccccc1-n1ncc2c(=O)[nH]c(SCC(=O)Nc3cccc(F)c3)nc21`, for which the “activity change, negative = inhibition” value is inactive: 9.57%. The same measure, in the same setting: then `CC(C)CCOc1ccc(Oc2nc(N(C)C)nc(N(C)C)n2)nn1`, with inactive: -3.4%. As for `CCOc1ccccc1N(C)C(=O)Cn1cnc2onc(-c3ccc(F)cc3)c2c1=O`, the call was inactive. In the case of `CSc1cccc(N2C(=O)N(CC(=O)NCc3ccccc3Cl)c3ccccc3S2(=O)=O)c1`, the “activity change, negative = inhibition” value is inactive: 10.6%.

For the molecule `Cc1ccc(NC(=O)CSc2nc(-c3cccs3)cc(C(F)(F)F)n2)cc1C`, the molecule was called inactive. Still for that read-out and setting: then `COc1cc(-c2noc(-c3ccc(NC4CCCCC4)c([N+](=O)[O-])c3)n2)cc(OC)c1OC`, with “inactive”. Consider `CC(C)Oc1cccc(C(=O)Nc2ccc(-c3nc4cc(Cl)cc(Cl)c4o3)cc2)c1`, for which the “activity change, negative = inhibition” value is inactive: 0.314%. The same measure, in the same setting: then `Cc1nnc(SCc2ccccc2Cl)c2cc3occc3n12`, with inactive: -9.49%.

Turning to `Cc1cccc2sc(N(Cc3cccnc3)C(=O)Cc3ccccc3)nc12`, the result was inactive.

For the molecule `CCCCCn1c(=N)c(S(=O)(=O)c2ccccc2)cc2c(=O)n3cccc(C)c3nc21`, the molecule was classed as inactive.

Turning to `Cc1cc(Nc2ccc(C(C)C)cc2)nc(-n2nc(C)cc2C)n1`, the “activity change, negative = inhibition” value was inactive: -16.8%. Turning to `COc1ccc(NC(=O)CN(C)S(=O)(=O)c2ccc3c(c2)CCCN3C(C)=O)cc1Cl`, the “activity change, negative = inhibition” value was inactive: 9%. As to `CCOc1cc(/C=C(\C#N)C(=O)Nc2ccccc2C)ccc1OCc1cc(=O)n2nc(CC)sc2n1`, the molecule was called inactive. Turning to `O=C(NC1CC(=O)N(c2ccc(F)cc2)C1)C1CCCCC1` (stereo not given), the “activity change, negative = inhibition” value is inactive: 19%.

Consider `O=C(c1ccc2c(c1)N(Cc1ccccc1F)C(=O)c1ccccc1S2=O)N1CCCCC1` (stereo not given), for which the result was inactive. `COc1ccccc1C(=O)Nc1ccccc1SCc1cc(=O)c2ccccc2[nH]1`: the “activity change, negative = inhibition” value is inactive: -20.5%. With `CCN(CC)C(=O)Cn1c(=O)n(CCCCCC(=O)NCc2ccccc2)c(=O)c2sccc21`, the result was inactive.

For the molecule `O=C(NCc1ccccc1)c1cc2ccccc2o1`, the “activity change, negative = inhibition” value is inactive: 7.15%. For the molecule `COc1ccc(-c2nc(C)c(CCNC(=O)c3cc(OC)c(OC)c(OC)c3)s2)cc1OC`, the outcome was inactive.

Consider `COc1ccc(OC)c2sc(N(Cc3cccnc3)C(=O)c3ccc(C(C)=O)cc3)nc12`, for which the “activity change, negative = inhibition” value is inactive: -3.68%. Take `COc1cccc(C(c2c(O)cc(C)n(Cc3ccco3)c2=O)N2CCC(C)CC2)c1` (stereo not given): the outcome was inactive. `CCOc1ccc(-c2csc(-c3nc(-c4ccc(Br)s4)cs3)n2)cc1`: the “activity change, negative = inhibition” value was inactive: 3.08%. Turning to `Cc1ccc(NC(=O)C2CCN(c3nnc(-n4cccc4)s3)CC2)cc1Cl`, the outcome was inactive. For the molecule `Cc1nnc(SCC(=O)NCc2ccc(N(C)C)cc2)c2nn(-c3ccccc3)c(C)c12`, the “activity change, negative = inhibition” value is inactive: 0.269%. With `CCCN(C(=O)Cc1c(C(=O)O)[nH]c2ccc(Cl)cc12)c1ccc(OCC)cc1`, the result was inactive. For the molecule `COc1cccc(CNC(=O)Cn2c(SCC(=O)Nc3ccc(F)cc3)nc3ccccc32)c1`, the “activity change, negative = inhibition” value was inactive: -15.6%. Consider `Cc1ccc2c(c1)-c1c(c(C(=O)NCCc3ccccc3)nn1C)CS2`, for which the “activity change, negative = inhibition” value is inactive: 2.79%. For the molecule `Cc1cccc(CS(=O)(=O)Cc2ccc(C(=O)NC(C)c3ccccc3)o2)c1` (stereo not given), the call was inactive.
